From patent publication US20200085917A1 (UNIVERSITY OF PITTSBURGH OF THE COMMONWEALTH SYSTEM OF …, published 2020)

Tests used:
Assay in all cases: GST pull-down, LC-MS/MS
[1] = target: T1, Nipsnap1_IPI:IPI00115824.1 (mouse, UniProt O55125 36-284)
T1 sequence (looked up): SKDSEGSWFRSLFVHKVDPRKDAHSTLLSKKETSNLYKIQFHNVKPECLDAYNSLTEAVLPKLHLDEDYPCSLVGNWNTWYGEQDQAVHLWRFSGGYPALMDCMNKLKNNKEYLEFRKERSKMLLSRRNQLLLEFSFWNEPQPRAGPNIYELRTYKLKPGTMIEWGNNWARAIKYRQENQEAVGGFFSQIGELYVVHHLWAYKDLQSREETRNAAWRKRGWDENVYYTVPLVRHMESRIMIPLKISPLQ

Gnb3_IPI:IPI00116938.1 = Gnb3_IPI:IPI00116938.1 (mouse, UniProt Q61011 1-340)
Acad8_IPI:IPI00274222.2 = target: T2, Acad8_IPI:IPI00274222.2 (mouse, UniProt Q9D7B6 21-413)
T2 sequence (looked up): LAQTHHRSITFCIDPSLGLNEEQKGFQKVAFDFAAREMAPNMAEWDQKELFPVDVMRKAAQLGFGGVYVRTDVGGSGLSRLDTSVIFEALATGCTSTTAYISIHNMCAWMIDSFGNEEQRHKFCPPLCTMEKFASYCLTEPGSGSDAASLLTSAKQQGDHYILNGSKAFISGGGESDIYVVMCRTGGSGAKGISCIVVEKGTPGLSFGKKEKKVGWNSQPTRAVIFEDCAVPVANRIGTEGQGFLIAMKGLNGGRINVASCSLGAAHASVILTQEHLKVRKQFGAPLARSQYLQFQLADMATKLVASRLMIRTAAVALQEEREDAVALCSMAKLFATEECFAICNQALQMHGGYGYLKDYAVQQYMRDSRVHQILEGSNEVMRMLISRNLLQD

Gbas_IPI:IPI00115827.1 = target: T3, Gbas_IPI:IPI00115827.1 (mouse, UniProt O55126 28-281)
T3 sequence (looked up): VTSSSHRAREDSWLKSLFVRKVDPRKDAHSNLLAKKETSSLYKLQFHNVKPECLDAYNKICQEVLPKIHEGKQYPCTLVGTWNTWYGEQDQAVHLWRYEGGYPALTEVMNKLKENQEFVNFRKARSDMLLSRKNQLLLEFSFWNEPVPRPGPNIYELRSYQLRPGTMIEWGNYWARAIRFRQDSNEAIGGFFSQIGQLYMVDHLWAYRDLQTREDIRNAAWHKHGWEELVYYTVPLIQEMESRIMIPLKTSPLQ

Nsf_IPI:IPI00656325.2 = Nsf_IPI:IPI00656325.2 (mouse, UniProt P46460 1-744)
Stoml2_IPI:IPI00115117.1 = target: T4, Stoml2_IPI:IPI00115117.1 (mouse, UniProt Q99JB2 29-353)
T4 sequence (looked up): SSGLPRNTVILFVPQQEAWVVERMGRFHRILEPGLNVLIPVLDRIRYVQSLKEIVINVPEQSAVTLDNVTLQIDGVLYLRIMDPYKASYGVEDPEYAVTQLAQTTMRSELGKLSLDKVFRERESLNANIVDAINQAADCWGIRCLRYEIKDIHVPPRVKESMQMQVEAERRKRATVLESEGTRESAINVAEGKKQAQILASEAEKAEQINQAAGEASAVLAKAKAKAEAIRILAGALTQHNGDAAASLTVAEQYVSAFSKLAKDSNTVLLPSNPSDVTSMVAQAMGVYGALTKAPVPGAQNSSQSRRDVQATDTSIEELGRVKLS

[2] = target: Slc25a1_IPI:IPI00276926.3 (mouse, UniProt Q8JZU2 14-311)
Hspa9_IPI:IPI00880839.1 = Hspa9_IPI:IPI00880839.1 (mouse, UniProt P38647 47-679)
Ppt1_IPI:IPI00331318.2 = target: T5, Ppt1_IPI:IPI00331318.2 (mouse, UniProt O88531 28-306)
T5 sequence (looked up): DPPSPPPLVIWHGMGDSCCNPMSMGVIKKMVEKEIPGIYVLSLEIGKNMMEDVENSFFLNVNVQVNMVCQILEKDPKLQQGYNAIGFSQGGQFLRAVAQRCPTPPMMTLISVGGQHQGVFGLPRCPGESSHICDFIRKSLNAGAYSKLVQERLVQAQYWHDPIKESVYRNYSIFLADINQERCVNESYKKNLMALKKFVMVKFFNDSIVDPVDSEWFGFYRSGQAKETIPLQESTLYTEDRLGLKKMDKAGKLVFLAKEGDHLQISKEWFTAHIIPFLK

Chchd3_IPI:IPI00133562.1 = target: T6, Chchd3_IPI:IPI00133562.1 (mouse, UniProt Q9CRB9 2-227)
T6 sequence (looked up): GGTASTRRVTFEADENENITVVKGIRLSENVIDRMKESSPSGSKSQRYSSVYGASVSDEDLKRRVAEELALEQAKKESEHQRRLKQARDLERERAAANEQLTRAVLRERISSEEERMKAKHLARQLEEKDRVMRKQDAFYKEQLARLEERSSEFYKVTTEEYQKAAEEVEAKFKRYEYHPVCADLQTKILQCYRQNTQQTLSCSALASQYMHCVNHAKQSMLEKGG

Measured: binding result

Sequence of Gnb3_IPI:IPI00116938.1 (Q61011 whole entry): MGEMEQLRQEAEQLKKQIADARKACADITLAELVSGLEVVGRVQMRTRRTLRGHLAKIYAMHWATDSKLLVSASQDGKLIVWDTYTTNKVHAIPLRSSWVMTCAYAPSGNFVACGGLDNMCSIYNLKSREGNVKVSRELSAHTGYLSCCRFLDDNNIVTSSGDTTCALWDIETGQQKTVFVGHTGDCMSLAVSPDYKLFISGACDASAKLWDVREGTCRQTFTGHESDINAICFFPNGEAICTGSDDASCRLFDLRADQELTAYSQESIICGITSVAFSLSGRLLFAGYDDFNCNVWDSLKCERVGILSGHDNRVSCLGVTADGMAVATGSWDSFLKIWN
Sequence of UniProt Q8JZU2 (Q8JZU2 14-311 limits assumed): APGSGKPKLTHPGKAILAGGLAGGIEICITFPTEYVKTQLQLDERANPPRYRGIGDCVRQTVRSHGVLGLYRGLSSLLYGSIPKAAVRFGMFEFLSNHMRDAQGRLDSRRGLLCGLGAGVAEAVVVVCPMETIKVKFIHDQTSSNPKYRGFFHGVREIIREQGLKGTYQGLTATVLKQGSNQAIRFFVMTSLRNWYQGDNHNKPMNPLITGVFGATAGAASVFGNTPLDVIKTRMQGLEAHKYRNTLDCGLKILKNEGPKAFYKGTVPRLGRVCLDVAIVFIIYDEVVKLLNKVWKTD
Sequence of Nsf_IPI:IPI00656325.2 (P46460 whole entry): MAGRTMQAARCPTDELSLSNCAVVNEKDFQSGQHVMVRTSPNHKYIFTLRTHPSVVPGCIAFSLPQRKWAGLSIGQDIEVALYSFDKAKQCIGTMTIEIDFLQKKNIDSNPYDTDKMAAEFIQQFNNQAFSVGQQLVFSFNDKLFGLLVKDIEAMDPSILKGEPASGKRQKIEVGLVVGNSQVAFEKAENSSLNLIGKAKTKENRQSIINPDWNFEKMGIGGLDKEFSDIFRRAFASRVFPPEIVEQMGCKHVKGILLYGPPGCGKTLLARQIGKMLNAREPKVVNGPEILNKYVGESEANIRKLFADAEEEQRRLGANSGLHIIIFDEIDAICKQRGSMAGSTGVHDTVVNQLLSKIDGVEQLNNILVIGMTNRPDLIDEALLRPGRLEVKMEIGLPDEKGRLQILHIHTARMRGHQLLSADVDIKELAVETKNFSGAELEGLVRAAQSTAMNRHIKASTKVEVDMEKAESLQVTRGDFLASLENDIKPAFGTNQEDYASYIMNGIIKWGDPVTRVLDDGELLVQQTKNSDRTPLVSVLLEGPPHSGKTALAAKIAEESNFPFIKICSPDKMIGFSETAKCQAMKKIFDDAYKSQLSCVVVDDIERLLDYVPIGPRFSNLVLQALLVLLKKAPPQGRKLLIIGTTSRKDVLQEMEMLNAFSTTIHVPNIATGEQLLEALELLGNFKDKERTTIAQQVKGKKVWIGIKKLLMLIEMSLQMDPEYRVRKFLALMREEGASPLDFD
Sequence of Hspa9_IPI:IPI00880839.1 (P38647 47-679 limits assumed): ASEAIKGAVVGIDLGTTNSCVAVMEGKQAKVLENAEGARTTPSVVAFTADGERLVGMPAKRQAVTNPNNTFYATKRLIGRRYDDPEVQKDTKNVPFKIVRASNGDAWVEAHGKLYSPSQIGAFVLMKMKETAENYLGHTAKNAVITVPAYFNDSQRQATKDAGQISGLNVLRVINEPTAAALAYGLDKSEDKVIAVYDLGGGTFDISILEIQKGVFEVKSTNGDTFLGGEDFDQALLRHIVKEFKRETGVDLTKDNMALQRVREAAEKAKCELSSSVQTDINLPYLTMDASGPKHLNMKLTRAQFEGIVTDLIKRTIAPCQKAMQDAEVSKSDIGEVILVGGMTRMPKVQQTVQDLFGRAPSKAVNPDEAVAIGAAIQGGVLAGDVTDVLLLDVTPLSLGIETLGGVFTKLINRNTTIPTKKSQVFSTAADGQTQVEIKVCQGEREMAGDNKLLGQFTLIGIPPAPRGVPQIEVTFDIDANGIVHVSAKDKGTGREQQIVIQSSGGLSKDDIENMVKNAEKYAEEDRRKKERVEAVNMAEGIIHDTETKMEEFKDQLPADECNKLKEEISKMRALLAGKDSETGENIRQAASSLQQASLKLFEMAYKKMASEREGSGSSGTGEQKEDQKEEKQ

B1: GST alone (other)
chain: not shown
notes: Negative control of the pull-downs; also called control GST
no binding: all assays above
